Source: the supplement of paper PMC11876631
Substitutions are numbered along the chain they refer to. Numbers in names are those of the source. ± gives the standard deviation of the averaged measurements. Laboratory Escherichia coli strains with one amino-acid change in an essential protein, pooled on minimal glucose agar with carbenicillin or gentamicin at twice the control MIC (plus kanamycin and chloramphenicol for the plasmids), 48 h. Fold change of barcode share against drug-free plates; higher = less susceptible. Active = above 20 in both replicates (the paper's putatively resistant). '<' = one read or none on drug, '>' = one read or none on a drug-free plate. Shares are relative, so most strains fall below 1 when a few take over. Listed are strains with at least 15 reads on both drug-free plates, and hits; most hits rest on fewer reference reads. Replicate rank correlation about 0.5. Edits are read from barcodes.

B1: metE V481D (protein)
chain: MTILNHTLGFPRVGLRRELKKAQESYWAGNSTREELLAVGRELRARHWDQQKQAGIDLLPVGDFAWYDHVLTTSLLLGNVPARHQNKDGSVDIDTLFRIGRGRAPTGEPAAAAEMTKWFNTNYHYMVPEFVKGQQFKLTWTQLLDEVDEALALGHKVKPVLLGPVTWLWLGKVKGEQFDRLSLLNDILPVYQQVLAELAKRGIEWVQIDEPALVLELPQAWLDAYKPAYDALQGQVKLLLTTYFEGVTPNLDTITALPVQGLHVDLVHGKDDVAELHKRLPSDWLLSAGLINGRNVWRADLTEKYAQIKDIVGKRDLWVASSCSLLHSPIDLSVETRLDAEVKSWFAFALQKCHELALLRDALNSGDTAALAEWSAPIQARRHSTRVHNPAVEKRLAAITAQDSQRANVYEVRAEAQRARFKLPAWPTTTIGSFPQTTEIRTLRLDFKKGNLDANNYRTGIAEHIKQAIVEQERLGLDVLDHGEAERNDMVEYFGEHLDGFVFTQNGWVQSYGSRCVKPPIVIGDISRPAPITVEWAKYAQSLTDKPVKGMLTGPVTILCWSFPREDVSRETIAKQIALALRDEVADLEAAGIGIIQIDEPALREGLPLRRSDWDAYLQWGVEAFRINAAVAKDDTQIHTHMCYCEFNDIMDSIAALDADVITIETSRSDMELLESFEEFDYPNEIGPGVYDIHSPNVPSVEWIEALLKKAAKRIPAERLWVNPDCGLKTRGWPETRAALANMVQAAQNLRRG
B2: metE V481P (protein)
chain: B1 chain with D481P
B3: metK L93A (protein)
chain: MAKHLFTSESVSEGHPDKIADQISDAVLDAILEQDPKARVACETYVKTGMVLVGGEITTSAWVDIEEITRNTVREIGYVHSDMGFDANSCAVASAIGKQSPDINQGVDRADPLEQGAGDQGLMFGYATNETDVLMPAPITYAHRLVQRQAEVRKNGTLPWLRPDAKSQVTFQYDDGKIVGIDAVVLSTQHSEEIDQKSLQEAVMEEIIKPILPAEWLTSATKFFINPTGRFVIGGPMGDCGLTGRKIIVDTYGGMARHGGGAFSGKDPSKVDRSAAYAARYVAKNIVAAGLADRCEIQVSYAIGVAEPTSIMVETFGTEKVPSEQLTLLVREFFDLRPYGLIQMLDLLHPIYKETAAYGHFGREHFPWEKTDKAQLLRDAAGLK
B4: metK L28A (protein)
chain: B3 chain with L28A, A93L
B5: metK V330W (protein)
chain: B3 chain with A93L, V330W
B6: metK L93Q (protein)
chain: B3 chain with A93Q
B7: metK L28P (protein)
chain: B3 chain with L28P, A93L
B8: metK V330Q (protein)
chain: B3 chain with A93L, V330Q
B9: metK L93P (protein)
chain: B3 chain with A93P
B10: metK L93W (protein)
chain: B3 chain with A93W
B11: metK V330A (protein)
chain: B3 chain with A93L, V330A

Target: Escherichia coli (laboratory strain)
Assay: barcode share on antibiotic plates over drug-free plates; higher = less susceptible
Protocol: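 A pool of E. coli strains, each edited to carry one amino-acid change in an essential protein, was grown for 48 h on minimal glucose agar with or without antibiotic; strain barcodes were sequenced; mean of two replicates.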

[1] = antibiotic: carbenicillin, 2× MIC (3.1 µg/mL)
[2] = antibiotic: gentamicin, 2× MIC (MIC 0.45 µg/mL)

Protein	fold change of barcode share [1]	fold change of barcode share [2]
B1	0.532 ± 0.19	0.0102 ± 0.0045
B2	0.635 ± 0.35	0.0406 ± 0.048
B3	0.237 ± 0.038	0.006369 ± 4.1e-05
B4	0.291 ± 0.13	< 0.00933
B5	0.191 ± 0.068	< 0.00921
B6	0.383 ± 0.013	< 0.00366
B7	0.154 ± 0.049	
B8	0.219 ± 0.036	< 0.0122
B9	0.548 ± 0.075	0.00851 ± 0.0064
B10	0.452 ± 0.083	0.00639 ± 0.0048
B11	0.318 ± 0.2	0.0186 ± 0.0096
